Hit rate of the full screen: of about 120,000 compounds, about 5,300 (4.4%) were called active. Inconclusive results, whose numbers are uncertain, are shown with a selection of clear calls. Calls follow the shape of the dose curve; as a rule, active = well fitted inhibition curve with a large enough effect; inconclusive = small, poorly fitted or top-dose-only effect; inactive = no such curve, though single readings can be large or run the other way. Where the call is inconclusive, the potency comes from a doubtful curve fit.
Experiment: qHTS Primary assay for Inhibitors of Plasmodium falciparum Dd2 growth in vitro; also: nearly all actives have a fitted effect of over 65% in size
Settings: P. falciparum Dd2 growth, SYBR Green, 72 h; series mostly up to 28.9 µM
Procedure, shortened: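 Readout: SYBR Green fluorescence, 485 nm excitation, 535 nm emission, after ~16 h lysis at 37C. Before that, Dd2-infected red cells (2.5% hematocrit) grew 72 h with compound, 29 uM top final concentration.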
For `COc1cccc(N2C(=O)OCC23CCN(CCCc2ccccc2)C3)c1` (centres undefined), the Potency was inconclusive: 11.2 µM [inhibitor, single point].
For `CCCCC1CCC(C(=O)N2CC(=O)Nc3ccc(Cl)cc3C2c2ccc(F)cc2)CC1` (centres undefined), the Potency was inconclusive: 11.2 µM [inhibitor, single point].
With `COc1ccc(CNC(=O)[C@@H]2COCC(=O)N2Cc2ccc(OC)cc2OC)cc1` the Potency was “inactive”.
With `N#Cc1cccc(C(=O)N2CCCCCCNC(=O)[C@@H]3C[C@@H](c4nc(Cc5ccccc5)no4)C[C@@H]32)c1` the Potency was inconclusive: 7.94 µM [inhibitor, partial curve, poor fit].
In the case of `C1CNC(c2nc(CCOCC3CC3)no2)C1` (centres undefined), the Potency is reported as inconclusive: 17.8 µM [inhibitor, single point].
In the case of `COc1cccc(COC2CN(CCc3ccccc3)C(=O)CN(C(=O)c3cc(C)nn3C)C2)c1` (centres undefined), the Potency is reported as inconclusive: 15.8 µM [inhibitor, single point].
For `CCOc1ccccc1NC(=O)c1c(NCc2sccc2C)sc2c1CCC(C)C2` (centres undefined), the Potency was active: 5.62 µM.
In the case of `CCCNC(=O)C[C@@H]1CCN(C(=O)c2cccnc2)C[C@@H]1CC`, the Potency is reported as “inactive”.
With `Cn1cc2c3c(cccc31)CN(C(=O)Cc1ccccc1F)CC2` the Potency was “inactive”.
In the case of `O=C([C@@H]1C[C@H](F)CN1C(=O)NCc1cccc(F)c1)N1CCCCC1`, the Potency is reported as “inactive”.
In the case of `O=C1COc2ccc(-c3ccsc3)nc2CN1`, the Potency is reported as inconclusive: 0.282 µM [inhibitor, full curve, poor fit].
For `COc1ccc(-c2noc(C(=O)O)c2[C@@H](C)NC(=O)Nc2cccnc2)cc1`, the Potency was “inactive”.
In the case of `NC1CCCCN(Cc2cc(-c3ccccc3OC(F)(F)F)no2)C1` (centres undefined), the Potency is reported as inconclusive: 3.16 µM [inhibitor, partial curve, poor fit].
In the case of `O=C(c1ccc(C(F)(F)F)cc1)N1CCC(N2CCCOC2=O)CC1`, the Potency is reported as “inactive”.
For `CCOC(=O)c1cccc2c1N[C@@H](c1ccc(F)cc1)[C@H]1CC=C[C@@H]21`, the Potency was inconclusive: 17.8 µM [inhibitor, single point].
With `COCC1CN(C)CC12CCN(Cc1cc(Br)ccc1F)CC2` (centres undefined) the Potency was active: 3.55 µM.
For `Cc1ccc2c(=O)c(C(=O)c3cccc(Cl)c3)cn(CC(=O)Nc3ccccc3C(F)(F)F)c2n1`, the Potency was inconclusive: 10 µM [inhibitor, single point].
With `COc1cc2c(cc1Oc1ccccc1)NC(=O)C21CCN(c2ncc(F)cn2)CC1` the Potency was active: 4.47 µM.
In the case of `CC(=O)Nc1cccc(-c2cc3c(ccn3C)c(C(=O)NCc3cccnc3)n2)c1`, the Potency is reported as inconclusive: 10 µM [inhibitor, partial curve, poor fit].
For `COc1ccc(C(=O)Nc2nc3c(s2)C[C@@H]2[C@](C)(CO)[C@H](O)CC[C@@]2(C)[C@@H]3CC(=O)N(C)Cc2ccccc2)cc1`, the Potency was inconclusive: 1.78 µM [inhibitor, single point].
With `Cc1ncsc1C(=O)N1CCOC(CCCC(C)C)C1` (centres undefined) the Potency was “inactive”.
For `CCCNC(=O)C1COC2(CCN(C(=O)c3ccc(OC)cc3)CC2)N1C(=O)c1ccc(OC)cc1` (centres undefined), the Potency was “inactive”.
In the case of `O=C(NCCc1ccc(Cl)cc1)C1CCc2nnc(-c3ccc(Cl)cc3Cl)n21` (centres undefined), the Potency is reported as inconclusive: 3.55 µM [inhibitor, full curve, poor fit].
With `CN1CCc2nc3sc(C(=O)Nc4ccccc4C(F)(F)F)c(N)c3cc2C1` the Potency was active: 8.91 µM.
For `COc1ccc(N2CC(NC(=O)c3cc(C(C)C)n4ncnc4n3)CC2=O)cc1` (centres undefined), the Potency was “inactive”.
For `O=C(c1ccoc1)N1CCC2(CC1)NCc1ccccc1-n1ccnc12`, the Potency was inconclusive: 2.82 µM [inhibitor, single point].
In the case of `COc1ccc(Cl)cc1NC(=O)CCC1CCCN(Cc2ccc(C)s2)C1` (centres undefined), the Potency is reported as active: 12.6 µM.
In the case of `CCOc1ccc(-n2nc3ccc(NC(=O)c4ccc(-c5cccc(Cl)c5)o4)cc3n2)cc1`, the Potency is reported as active: 2.82 µM.
For `CCN(CC)C(=O)[C@@H]1C[C@H](NC(=O)c2ccc[nH]2)CN1Cc1ccncc1`, the Potency was inconclusive: 4.47 µM [inhibitor, partial curve, poor fit].
In the case of `Cc1cc(C)c(CNC(=O)c2cc(-c3ccnn3C)cc3c2OCCN3C(C)C)c(=O)[nH]1`, the Potency is reported as inconclusive: 0.398 µM [inhibitor, full curve, poor fit].
With `CC1CCCCN1CCCNC(=O)c1cc(Sc2ccc(Cl)cc2)nc2ccccc12` (centres undefined) the Potency was inconclusive: 10 µM [inhibitor, single point].
With `CCO[C@H]1CN(C(=O)Cc2c(C)nn(-c3ccccc3)c2C)C[C@@H]1O` the Potency was “inactive”.
With `CC1=Nc2cc(C(=O)NCCc3ccc(Cl)cc3)ccc2Sc2c(C)ccc(C)c21` the Potency was inconclusive: 10 µM [inhibitor, single point].
For `COc1ccc(-c2cc(C(=O)NCC(C)C)c3c(C4CCCN4)nn(C)c3n2)cc1` (centres undefined), the Potency was active: 3.98 µM.
For `O=C(CC1N=C2c3ccccc3N=C(SCC(=O)Nc3ccc(F)cc3)N2C1=O)NCc1cccs1` (centres undefined), the Potency was “inactive”.
For `Cc1nc(-c2cn(C3CCCN(C(=O)C(C)Oc4ccc(Cl)cc4)C3)nn2)no1` (centres undefined), the Potency was inconclusive: 11.2 µM [inhibitor, partial curve, poor fit].
In the case of `CCOc1ccc(NC(=O)N2CC3CC(C2)[C@H]2CCCC(=O)N2C3)cc1` (some centres undefined), the Potency is reported as “inactive”.
In the case of `O=C(Cc1ccccc1)N1Cc2ccccc2CC2(CCCCN2Cc2ccccn2)C1` (centres undefined), the Potency is reported as inconclusive: 10 µM [inhibitor, partial curve].
For `COc1ccc(-c2[nH]nc3ncc(-c4ccc([S+](C)(=O)[O-])cc4)nc23)c(C)c1`, the Potency was inconclusive: 1.58 µM [inhibitor, full curve, poor fit].
For `COc1cc2c(cc1OC)C(CNC(=O)c1ccc(C)cc1)N(C(=O)Nc1ccccc1F)CC2` (centres undefined), the Potency was inconclusive: 3.98 µM [inhibitor, single point].
With `COCCOC1CCOC2(CCN(C(=O)c3ccco3)CC2)C1` (centres undefined) the Potency was inconclusive: 0.251 µM [inhibitor, full curve, poor fit].
With `CC1=C[C@@H](CNC(=O)C2CCCCC2)[C@H](C(C)C)C[C@H]1CC(=O)NCc1cccnc1` the Potency was “inactive”.
In the case of `CCN(CC)CCCNC(=O)c1ccc2c(Cl)c3c(nc2c1)CCCC3`, the Potency is reported as active: 11.2 µM.
With `O=C(N[C@@H]1COCC[C@@H]1OCc1ccccc1)c1n[nH]c2c1COCC2` the Potency was “inactive”.
With `O=C(Cc1ccccc1)N1CCC(Oc2cccc(F)c2)C1` (centres undefined) the Potency was inconclusive: 3.98 µM [inhibitor, partial curve, poor fit].
In the case of `CNC(=O)CC1C(=O)NCCN1C(=O)c1cc(COc2ccccc2)[nH]n1` (centres undefined), the Potency is reported as “inactive”.
With `NS(=O)(=O)c1ccc2nc(NC(=O)COc3ccc(Cl)cc3Cl)sc2c1` the Potency was “inactive”.
In the case of `COCCNC(=O)c1ccc2c(c1)N=C(C)c1cc(C)ccc1S2`, the Potency is reported as inconclusive: 7.94 µM [inhibitor, partial curve].
In the case of `COc1cccc(CNC(=O)c2c(C)oc3ccn(Cc4ccc(F)cc4)c(=O)c23)c1`, the Potency is reported as inconclusive: 3.55 µM [inhibitor, full curve, poor fit].
For `OC1(c2csc(CN3CCOCC3)n2)CCN(Cc2ccccc2F)CC1`, the Potency was inconclusive: 20 µM [inhibitor, single point].
With `CC1=C[C@@H](CNS(C)(=O)=O)[C@H](C(C)C)C[C@H]1CC(=O)O` the Potency was “inactive”.
With `Clc1ccc(-c2cnc([C@@H]3COCCN3Cc3ccccc3)[nH]2)cc1` the Potency was active: 10 µM.
With `CCn1nc(C(C)C)cc1C(=O)NCCS(=O)(=O)N1CCCC1` the Potency was “inactive”.
In the case of `COc1ccc2c(CNCc3cccs3)c(C(=O)O)n(Cc3ccccc3F)c2c1`, the Potency is reported as inconclusive: 10 µM [inhibitor, partial curve, poor fit].
In the case of `CCN1CCCC1CNC(=O)CCC1CCN(Cc2cn(CC)c3ccccc23)CC1` (centres undefined), the Potency is reported as inconclusive: 12.6 µM [inhibitor, single point].
In the case of `COc1ccc(CC(=O)N2CCc3cc(OC)c(OC)cc3C2COc2ccc(F)cc2)cc1OC` (centres undefined), the Potency is reported as active: 11.2 µM.
In the case of `O=C(NC1CC1)c1ccc2cncn2c1`, the Potency is reported as inconclusive: 2.51 µM [inhibitor, full curve, poor fit].
For `CN(C)c1ccc(CN2CCCC3(CC(Cc4ccccc4)=NO3)C2)cc1` (centres undefined), the Potency was inconclusive: 8.91 µM [inhibitor, partial curve, poor fit].
With `O=C(CCC1CCCN(C(=O)c2ccc3c(c2)OCO3)C1)NCc1ccccc1Cl` (centres undefined) the Potency was “inactive”.
In the case of `COCc1cc(N2CCc3onc(-c4cccc5ccccc45)c3C2)ncn1`, the Potency is reported as active: 14.1 µM.
With `O=C1c2cc(N3CCOCC3)nc(-c3cccc(F)c3)c2CN1Cc1ccccc1` the Potency was “inactive”.
With `CCCCSc1nnc2c(n1)OC(C)N(C(C)=O)c1ccccc1-2` (centres undefined) the Potency was inconclusive: 0.1 µM [inhibitor, full curve].
In the case of `O=C(c1ccccc1)N1C[C@@H](CO)[C@H](c2nc(-c3ccncc3)no2)C1`, the Potency is reported as “inactive”.
For `COc1ccc(CCNC(=O)Cc2c(C)c3cc4c(C)coc4c(C)c3oc2=O)cc1`, the Potency was “inactive”.
In the case of `COCC(=O)N1CC(Oc2ccc(-c3noc(-c4ccncc4)n3)cc2)C1`, the Potency is reported as inconclusive: 4.47 µM [inhibitor, partial curve, poor fit].
With `NC(=O)CCNC(=O)C1=C[C@@H](NC(=O)CC2(CC(=O)O)CCCC2)[C@@H](O)[C@H](O)C1` the Potency was “inactive”.
With `Cc1c(Cl)cccc1-n1ncc(C(=O)N2CCOCC2)c1C1CCN(C(=O)OC(C)(C)C)CC1` the Potency was “inactive”.
For `CCC(CC)Nc1ncnc2c1CN(C1CCC1)C(=O)CN2C`, the Potency was inconclusive: 31.6 µM [inhibitor, single point].
With `O=C(c1ccc(Nc2nc3ccccc3n3nnnc23)cc1)N1CCN(c2cccc(C(F)(F)F)c2)CC1` the Potency was inconclusive: 8.91 µM [inhibitor, single point].
Potency is read from the fitted curve at half-maximal effect; tags tell the direction and shape of the fitted curve.
